Assay results published in PubChem BioAssay AID1030 (National Center for Advancing Translational Sciences (NCATS), 2008).
Out of some 220,000 compounds screened, about 16,000 (7.3%) were called active. Inconclusive results, whose numbers are uncertain, are shown with a selection of clear calls. Calls follow the shape of the dose curve; as a rule, active = well fitted inhibition curve with a large enough effect (not every such curve was filed as active); inconclusive = small, poorly fitted or top-dose-only effect, or another doubt; inactive = no such curve, though single readings can be large or run the other way. No potency is given beside an inconclusive call; the fits are too rough.

Target: Aldehyde dehydrogenase 1A1 (Homo sapiens) (UniProt P00352)
Chain of UniProt P00352 (P00352 whole entry, looked up): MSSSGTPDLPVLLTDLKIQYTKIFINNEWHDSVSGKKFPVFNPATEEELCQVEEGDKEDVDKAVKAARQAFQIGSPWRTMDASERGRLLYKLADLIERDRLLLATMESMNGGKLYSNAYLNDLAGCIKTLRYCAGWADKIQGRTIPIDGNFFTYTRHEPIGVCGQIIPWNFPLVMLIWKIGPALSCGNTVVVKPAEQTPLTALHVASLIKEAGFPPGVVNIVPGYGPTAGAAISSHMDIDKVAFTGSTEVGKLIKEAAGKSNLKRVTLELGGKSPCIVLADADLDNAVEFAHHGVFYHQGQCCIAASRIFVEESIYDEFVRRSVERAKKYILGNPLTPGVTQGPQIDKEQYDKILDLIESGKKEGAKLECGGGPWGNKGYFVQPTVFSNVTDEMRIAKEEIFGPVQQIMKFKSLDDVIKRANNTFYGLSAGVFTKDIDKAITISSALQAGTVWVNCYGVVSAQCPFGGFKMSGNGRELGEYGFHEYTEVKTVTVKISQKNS
Assay: qHTS Assay for Inhibitors of Aldehyde Dehydrogenase 1 (ALDH1A1);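 as to activity, negative = inhibition: plate controls were no enzyme wells and a reference inhibitor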
Conditions: Purified ALDH1A1, NADH fluorescence, propionaldehyde substrate; series mostly up to 75.3 µM; activity, negative = inhibition: at the top concentration
Potency is read from the fitted curve at half-maximal effect; tags tell the direction and shape of the fitted curve.

Structure (SMILES) | Potency | activity, negative = inhibition
Cc1cccc(-n2c(C)cc(/C=N/NC(N)=S)c2C)c1 | active: 3.16 µM | 
COCCNc1ccnc(-c2c(C)noc2C)n1 |  | inactive: 12.2%
CSc1nc(NCc2ccccc2)c2c3c(sc2n1)CN(C)CC3 | inconclusive [inhibitor, single point] | 
C=CCNC(=S)Nc1ccc(Cl)c(S(=O)(=O)N2CCOCC2)c1 | inconclusive [inhibitor, single point] | 
COc1ccc(OC)c(C2CC(=O)N3CN(c4cccc(Cl)c4)CSC3=C2C#N)c1 (stereo not drawn) | active: 35.5 µM | 
c1ccc2oc(C3=NCCN3)cc2c1 | inconclusive [inhibitor, single point] | 
COc1ccc(C(C)=O)cc1CSc1nnc(Nc2ccccc2)s1 | inconclusive [inhibitor, partial curve] | 
O=C1c2ccccc2NC2(CCCC2)N1N=C1CCCC1 | inconclusive [inhibitor, single point] | 
CCOc1ccc(C2c3cc(OC)c(OC)cc3CC(=O)N2c2ccc(OC)cc2)cc1 (stereo not drawn) | inconclusive [inhibitor, partial curve] | 
O=S(=O)(CC12C3C4C5C1C2C(Br)(C43)C51OCCO1)c1ccccc1 (stereo not drawn) | active: 11.2 µM | 
CCOc1ccc(C(C)=O)cc1CSc1nnc(-c2ccncc2)n1CCOC | inconclusive [inhibitor, single point] | 
CC(=O)Nc1nc(COc2ccccc2)cs1 |  | inactive: -11.8%
CNC(=O)c1ccc(NC(=O)c2cccc(C(F)(F)F)c2)cc1 |  | inactive: 2.1%
CN(C(=O)CSc1nnc(-c2cccnc2)n1-c1ccccc1F)C1CCS(=O)(=O)C1 (stereo not drawn) |  | inactive: -2.81%
CCOc1ccc(C2c3c(oc4cc(C)c(C)cc4c3=O)C(=O)N2CCCN(C)C)cc1OC (stereo not drawn) | inconclusive [inhibitor, single point] | 
CN(C)C(CNC(=O)c1cc(S(=O)(=O)N(C)c2ccccc2)ccc1Cl)c1cccs1 (stereo not drawn) |  | inactive: -3.33%
COc1ccc2[nH]c(=O)c(CN(CCO)S(=O)(=O)c3ccc(C)cc3)cc2c1 | inconclusive [inhibitor, single point] | 
CCCn1c(C)cc(C(=O)COc2ccc(C)nc2[N+](=O)[O-])c1C | inconclusive [inhibitor, single point] | 
CN1C(=O)CC(Nc2cccc3cccc(N)c23)C1=O (stereo not drawn) | inconclusive [inhibitor, single point] | 
CCCCC(=O)Nc1ccc(NC(=S)NC(=O)CCCCl)cc1OC | inconclusive [inhibitor, single point] | 
Cc1nc2c(=O)n(C)c(=O)n(C)c2nc1Cl | inconclusive [inhibitor, single point] | 
Cc1cccc(C)c1OCc1nnc2c3cnn(C)c3ncn12 | inconclusive [inhibitor, full curve] | 
CCCc1cc(=O)[nH]c(SCC(=O)c2[nH]c(C)c(C(=O)OCC)c2C)n1 | inconclusive [inhibitor, single point] | 
COc1ccc(OC)c(N/C=C/C(=C(C#N)C#N)N(C)C)c1 | inconclusive [inhibitor, partial curve] | 
COc1ccc(N(Cc2cc3cc(OC)ccc3[nH]c2=O)S(C)(=O)=O)cc1 | inconclusive [inhibitor, partial curve] | 

Structure (SMILES) | Potency | activity, negative = inhibition
COc1ccc(/C(O)=C2/C(=O)C(=O)N(CC3CCCO3)C2c2ccc(O)c(OC)c2)cc1 (stereo not drawn) | inconclusive [inhibitor, single point] | 
COc1nc(-c2ccccc2)ccc1-c1noc(-c2ccccc2)n1 | inconclusive [inhibitor, single point] | 
Nc1ccccc1C(=O)NCc1ccc(F)cc1 | inconclusive [inhibitor, partial curve] | 
COCCn1cc(C(=O)NCCCN2CCC(C)CC2)c2c3ccccc3n(C)c2c1=O | inconclusive [inhibitor, single point] | 
COCCn1c(C)nnc1SCC(=O)Nc1ccccc1[N+](=O)[O-] | inconclusive [inhibitor, single point] | 
OC(COCC1CC=CCC1)Cn1cnc2ccccc21 (stereo not drawn) | inconclusive [inhibitor, partial curve] | 
CCCOc1ccc(N2C(=O)CC(N(CCc3ccc(OC)cc3)C(=O)c3cccc(F)c3)C2=O)cc1 (stereo not drawn) |  | inactive: -3.42%
Cc1cc(C(=O)CCl)c(C)n1Cc1ccco1 | active: 0.1 µM | 
O=C(N/N=C/c1ccc2c(c1)OCO2)c1cc(-c2ccccc2)nc2ccccc12 | inconclusive [inhibitor, partial curve] | 
CCN1CCCC1CNC(=O)c1cn(CC)c2ccc(S(=O)(=O)N3CCCCCC3)cc2c1=O (stereo not drawn) | inconclusive [inhibitor, single point] | 
CCCCNC(=O)CSc1nc2ccccc2n1S(=O)(=O)c1ccc(Cl)cc1 |  | inactive: 13.7%
O=S(=O)(c1ccc2ccccc2c1)N1CCC(c2nc(-c3ccncc3)no2)CC1 |  | inactive: -6.01%
O=C(COC(=O)c1ccc(CNS(=O)(=O)c2ccc(F)c(Cl)c2)cc1)NCC1CCCCC1 |  | inactive: 8.57%
CCN(CC)CCCCn1c(-c2ccccc2)nc2c(NCc3ccccc3)nc(C)nc21 | inconclusive [inhibitor, partial curve] | 
COc1ccccc1OCC(=O)NCc1ccco1 |  | inactive: -0.0567%
COc1ccc(OC)c(NC(=O)CSc2nnnn2-c2ccc3c(c2)OCO3)c1 |  | inactive: 16.4%
O=C(Nc1nc(-c2cccs2)c(-c2cccs2)s1)C1(c2ccccc2)CC1 | inconclusive [inhibitor, single point] | 
O=C1CCC(C(=O)N2CCCC(C(=O)c3ccc4c5c(cccc35)CC4)C2)=NN1 (stereo not drawn) | inconclusive [inhibitor, single point] | 
CCOC(=O)COc1ccc2c(c1)C(=O)CC(C)(C)O2 | inconclusive [inhibitor, partial curve] | 
CCN1C=C(C(=O)OC)C(c2cccc(C)c2)C(C(=O)OC)=C1 | inconclusive [inhibitor, partial curve] | 
COc1cc(NC(=O)COC(=O)CNC(=O)c2ccc(Cl)cc2)c(C)cc1[N+](=O)[O-] | inconclusive [inhibitor, single point] | 
Cc1ccc2c(c1)c1c3n2CCN=C3CCC1 |  | inactive: -6.12%
CC1SC(=NC(=O)C(C)N2C(=O)c3ccccc3C2=O)NC1=O (stereo not drawn) | inconclusive [inhibitor, single point] | 
COc1ccc(-n2ncc3c(=O)n(CC(=O)OCc4ccccc4)cnc32)cc1 | inconclusive [inhibitor, single point] | 
O=S(=O)(CC(CN1CCCCC1)N1CCCCC1)c1ccc2ccccc2c1 (stereo not drawn) |  | inactive: 4.57%

Structure (SMILES) | Potency | activity, negative = inhibition
CCCCC(CC)Cn1c(N)c(C#N)c2nc3ccccc3nc21 (stereo not drawn) | inconclusive [inhibitor, partial curve] | 
COc1ccc(/C=C/C(=O)c2ccccc2O)cc1CN1CCOCC1 |  | inactive: 5.75%
CN(C)c1cccc(C(=O)OCc2cc(=O)oc3cc(O)ccc23)c1 | inconclusive [inhibitor, partial curve] | 
CCOc1ccc2nc(SCC(=O)NCc3ccc4c(c3)OCO4)[nH]c2c1 |  | inactive: -4.63%
COc1ccccc1NC(=O)CSc1nnc(Cn2nnc(-c3ccccc3)n2)n1-c1ccccc1 | active: 2.82 µM | 
O=C(NCc1ccc2c(c1)OCO2)C12CN(Cc3ccccc3)CC1C(c1cccc([N+](=O)[O-])c1)=NO2 (stereo not drawn) | inconclusive [inhibitor, partial curve] | 
COc1ccc(C(=O)Oc2c(C)occc2=O)cc1OC |  | inactive: 4.68%
N/C(CCN1CCCCC1)=N/O |  | inactive: 6.1%
CCN(CC)c1nc(Nc2ccc(Cl)cc2)nc(OCC#N)n1 |  | inactive: -0.327%
CCN(CC)CCCCn1c(-c2ccccc2)nc2c(N(CCOC)CCOC)nc(C)nc21 | inconclusive [inhibitor, partial curve] | 
CCc1ccc(OCc2nnc(SCC(=O)N3CCN(c4ccccc4)CC3)o2)cc1 | inconclusive [inhibitor, single point] | 
CN(C)CCNc1ccccn1 |  | inactive: 14% [at 13.5 µM]
Cc1cccc(C)c1NC(=O)c1c(C)nn(-c2ccccc2)c1Cl |  | inactive: -4.74%
CCCCOc1ccc(-c2c(C#N)c(N)nc(SCC(N)=O)c2C#N)cc1 | inconclusive [inhibitor, single point] | 
Cc1ccc(CC(CC(=O)NCCc2ccc3c(c2)OCO3)C(=O)O)cc1 (stereo not drawn) | inconclusive [inhibitor, partial curve, poor fit] | 
CCN(C(=O)c1cccs1)c1nc(-c2ccc(OC)cc2)cs1 | inconclusive [inhibitor, single point] | 
CCOC(=O)CSC1=C(C#N)C(c2sccc2C)C(C(C)=O)=C(C)N1 (stereo not drawn) | active: 22.4 µM | 
c1ccc(-c2n[nH]c3c2oc2ccccc23)cc1 |  | inactive: -4.12%
CCOC(=O)c1cccc(NC(=S)NCc2ccc(C)cc2)c1 | inconclusive [inhibitor, partial curve] | 
CC1CC(C)CN(CC(C)(C)NS(=O)(=O)c2ccccc2)C1 (stereo not drawn) |  | inactive: -7.72%
C/C(=N\NC(=O)c1ccccc1O)c1cccs1 | inconclusive [inhibitor, single point] | 
Cc1ccc(NC(=O)CSc2nnc3ccccn23)cc1S(=O)(=O)N1CCOCC1 |  | inactive: 7.46%
COc1ccc(N(CC(=O)N/N=C/c2ccco2)S(=O)(=O)c2ccccc2)cc1 |  | inactive: -12.1%
